Measured values published in paper PMC12136788.
The other results are listed elsewhere or left out.

T1: UNK ZnF1-3 (human, UniProt Q9C0B0 31-174)
T1 sequence: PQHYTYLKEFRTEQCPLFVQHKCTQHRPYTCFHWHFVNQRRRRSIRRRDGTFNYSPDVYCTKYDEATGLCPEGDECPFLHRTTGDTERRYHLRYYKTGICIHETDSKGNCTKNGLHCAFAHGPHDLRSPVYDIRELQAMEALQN

B1: chr4:144460044:144460045:+_ENSG00000153147_ENST00000283131|hu_mus|hu_hu_hu_mus_False|28_28 (ssRNA)
RNA: GGGAGUUCUACAGUCCGACGAUCACGGUCCAUAGCCUGAAGAUCAACUUGCGGAUUCCAAUCUGAGUCAUAUAAAAUGACUACAUCAGCAGUUGCAAGAUUGAUGCCAAGACCACCAGCACGUGUGCUUAGCAUAAAUACAAACAACAGAGGAUUGAGCAUCA
B2: chr3:179287964:179287965:+_ENSG00000136518_ENST00000429709|hu_hu|hu_hu_hu_mus_True|38_88 (ssRNA)
RNA: GGGAGUUCUACAGUCCGACGAUCCUUGAGUGGUGAGAUGGCCUCCAUAUUCUCCCUGGGCACGCGGAGGGCAUUGGUGUCUAUGUAGUAGGUGGGCCCGCCUUGUUUGCCUUUGUCACCAUCAAUCUCCAUCAUUGUACUUCCCAACAGAGGAUUGAGCAUCA
B3: chr12:39756943:39756944:-_ENSG00000139116_ENST00000544797|hu_mus|hu_hu_hu_mus_False|58_88 (ssRNA)
RNA: GGGAGUUCUACAGUCCGACGAUCGGUUUGGCUGUUACCCCCAAGGGAAUCCUGUAGGAGUCUUGUCAGCUUAGAGUCUCUAUAGGGGACAUGGGUGGCUCUCUUGCUCUUGUCCCCCAAGGCGCUGAUUACAUUCCCAAGAGCCAACAGAGGAUUGAGCAUCA
B4: chr2:47387770:47387771:-_ENSG00000143933_ENST00000272298|hu_mus|hu_hu_hu_mus_True|18_28 (ssRNA)
RNA: GGGAGUUCUACAGUCCGACGAUCAAGGUUUAAGGACAAUGACAGUAAGAUAAGGGAAGAAAACAUGGAGGAAUGAAGUCCUAAUUACUAUACAUGCAUAUUUUUUGGACAGUAGGGAGAAACCUUUUUUACAGAUAAGUUACACAACAGAGGAUUGAGCAUCA
B5: chr1:157179356:157179357:-_ENSMUSG00000026469_ENSMUST00000027741|perfect_dup|motif|central (ssRNA)
RNA: GGGAGUUCUACAGUCCGACGAUCCAGGAUGAGACUGAGGUAGAACUCGCUGAAGGCCAGCUUAAGGUCUUUAAUGUUCCGGUGUUGGACACGCUCCUCGUGGGACAGGUGGAACACUGGCUUUCUGCGCUGUCGCAAUGUCGUCAACAGAGGAUUGAGCAUCA
B6: chr11:118639009:118639010:-_ENSG00000110367_ENST00000264018|hu_mus|FALSE|FALSE (ssRNA)
RNA: GGGAGUUCUACAGUCCGACGAUCUUCAAGUAAGGGGAUGAGGUAGGCACCGCUUUUGCCUGUUCCAUUUUUUGCUCUAGCUAAGAUAUCCCUACCAGAUAAAGCAAUGGGAAUGCUCUCCUCCUGGAUAGGAGAUGGUUUUUCCAACAGAGGAUUGAGCAUCA

Target: T1, UNK ZnF1-3
Experiment: nsRBNS (natural sequence RNA bind-n-seq); RBNS binding buffer (assumed for nsRBNS): 25 mM Tris pH 7.5, 150 mM KCl, 3 mM MgCl2, 0.01% Triton X-100, 500 ug/ml BSA, 20 U/ml SUPERase-In, 4 C; UNK is unkempt and MSI1 is Musashi-1; names of the RNAs are library labels; protein concentration not given here; high values mean tight binding

Row | Binder | binding signal
1 | B1 | 0.863 enrichment R
2 | B2 | 0.671 enrichment R
3 | B3 | 0.721 enrichment R
4 | B4 | 1.49 enrichment R
5 | B5 | 0.832 enrichment R
6 | B6 | 0.864 enrichment R
